The source of these data is the supplement of paper PMC11417369.

The other results are listed elsewhere or left out.

This experiment has as its system PfHDP1 homeodomain (GST-tagged). The experiment in a line: gcPBM binding intensity (ln(normalized median fluorescence intensity)); higher = stronger DNA binding. The method in brief:
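Binding intensity is the highest Masliner-normalised natural-log median intensity over replicate spots in either probe orientation. To obtain it, GST-tagged P. falciparum DNA-binding domains made in E. coli were incubated for 1 h on an Agilent 4 × 180k array of primer-extended double-stranded 36-bp intergenic genomic probes plus negative controls. Detection used Alexa488 anti-GST antibody with scanning at 488 nm.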
For the sequence “TATAAAAATAATATTACACACATGTAAAATGGGGGT [CACACA_site9071]”, the “gcPBM binding intensity (ln)” value is 7.03.

As to “ATACACTTAATATTATGTACATATATAAAAAAAATA [XGTACX_site1500]”, the “gcPBM binding intensity (ln)” value was 6.6.

As to “TATATTTAAATTCTTTCAAATCATGTTGTAATTTTT [CACACA_negctrl_site1349]”, the “gcPBM binding intensity (ln)” value stood at 6.3.

As for “CATAAAAATGGATACACACACATAATATATTTATAT [CACACA_site7669]”, the “gcPBM binding intensity (ln)” value is 6.67.

In the case of “ACAATATATTCATATTGTACATAAAATAAGGCTAAC [XGTACX_site6728]”, the “gcPBM binding intensity (ln)” value turned out to be 6.83.

Take “TTTTCAGAAAAGAGAAACTTTATTTTTCACAACCGA [TGCATGCA_negctrl_site389]”: the “gcPBM binding intensity (ln)” value is 6.18.

For the sequence “ATTTTTTATGAAAATAAACACACGATTTATTATATA [CACACA_site1312]”, the “gcPBM binding intensity (ln)” value worked out at 6.11.

With “TGTAGTCATTAGTCAAATTAGAATTAAATATATATT [GTGCAC_negctrl_site643]”, the “gcPBM binding intensity (ln)” value is 6.17.

Turning to “TAAAAAATTATTAAACGTACGAGACTTTTTATCAGT [XGTACX_site2219]”, the “gcPBM binding intensity (ln)” value is 6.4.

As to “TCTTTTTTAATATAATATATTTTTATTAAGTAAATC [TGCATGCA_negctrl_site408]”, the “gcPBM binding intensity (ln)” value was found to be 6.2.

In the case of “TAAATTTATGGACACACACACATATATATATATATA [CACACA_site4620]”, the “gcPBM binding intensity (ln)” value was determined as 9.3.

For “TATTTATCTATATATTGTACTTATTAGTCTTAATGT [XGTACX_site4242]”, the “gcPBM binding intensity (ln)” value came to 6.47.

“AAATTTTAATTAGGAACACACATATATATATATATA [CACACA_site5673]”: the “gcPBM binding intensity (ln)” value is 9.27.

Consider “TTATATATAGATCACACACACACACCGGTTTTAAAA [CACACA_site4220]”, for which the “gcPBM binding intensity (ln)” value was found to be 6.77.

“ATTCTAATTAGTAAAGTGCAGATAAAATGATGCCCT [GTGCAC_site9578]”: the “gcPBM binding intensity (ln)” value was found to be 7.14.

In the case of “TTTTTCACATCTATAAATCATCTAATCAATATTTTT [GTGCAC_negctrl_site444]”, the “gcPBM binding intensity (ln)” value was found to be 6.19.

Regarding “AATATATTTTGATATGAACAATTAATAATTTCAAAT [GTGCAC_negctrl_site170]”, the “gcPBM binding intensity (ln)” value amounted to 6.27.

Consider “GGTTCTAAAAAGGGAAGTACATGGAAAAATATAAAT [XGTACX_site4639]”, for which the “gcPBM binding intensity (ln)” value was 6.75.

For “ATCGTTATATAATGTTGTACTTGTTATATATATATA [XGTACX_site7582]”, the “gcPBM binding intensity (ln)” value came out at 8.84.

Regarding “GCATGCACGGAAAAAAGTACATATATAAATTTGGTT [XGTACX_site3393]”, the “gcPBM binding intensity (ln)” value was found to be 8.65.

In the case of “AAAATTTAGCAAAGGTGTACAAAAGATAATTAGAGT [XGTACX_site3467]”, the “gcPBM binding intensity (ln)” value is 7.69.

Consider “TTTTTTAAATATATTTGTACATATGAAATAAAGATA [XGTACX_site3841]”, for which the “gcPBM binding intensity (ln)” value turned out to be 6.74.

“AAAATTATTATGAAAAGTACAAATATGTAAACATAC [XGTACX_site5517]”: the “gcPBM binding intensity (ln)” value was 6.24.

As to “TTCATTTATATAATCACACATTTTATCATCTATGTT [CACACA_site4327]”, the “gcPBM binding intensity (ln)” value was 6.79.

As for “ATATGTTTATTTATTTGTACTTATCATATAATAACA [XGTACX_site5486]”, the “gcPBM binding intensity (ln)” value was 6.38.

As for “TGTATATTTTAGTGATGTACTAATATTATTACTAAT [XGTACX_site3952]”, the “gcPBM binding intensity (ln)” value is 6.21.

Turning to “TTAGAAAGAATGTATTGTACATATATATTATATATA [XGTACX_site7045]”, the “gcPBM binding intensity (ln)” value came out at 6.43.

Consider “TGCTTAGCACACTATCTACTTCCTTTGTTTCATAAA [GTGCAC_negctrl_site495]”, for which the “gcPBM binding intensity (ln)” value amounted to 6.9.

In the case of “TTTTTTTTTAATAAAATTATAATAAATATGAAATTA [XGTACX_negctrl_site369]”, the “gcPBM binding intensity (ln)” value was found to be 6.23.

As to “ATATATATATATATATGTACACATATATATACTCAC [XGTACX_site8043]”, the “gcPBM binding intensity (ln)” value came out at 9.4.

As for “TGAGTATATAAATACACACACATATATATATTTTAA [CACACA_site5130]”, the “gcPBM binding intensity (ln)” value stood at 6.49.

Consider “TTTTATTTTTAAGGATGTACTCAATTGTTTATATAC [XGTACX_site3965]”, for which the “gcPBM binding intensity (ln)” value was 6.2.

Consider “ATTAAAATCATATACACACCCATATATATATATATA [CACACA_site5050]”, for which the “gcPBM binding intensity (ln)” value was determined as 9.27.

Take “ATACATATCTACCTATGTACATAATACAACAAAGAT [XGTACX_site323]”: the “gcPBM binding intensity (ln)” value turned out to be 7.08.

With “GAATAAATACCGGTGTGTACTTAAATCATTCACGAA [XGTACX_site3174]”, the “gcPBM binding intensity (ln)” value was 6.49.

“ATTTTATATACAAAATGTACATATTTATTATATATG [XGTACX_site6732]”: the “gcPBM binding intensity (ln)” value came to 6.63.

With “GCACATATGAATATAATACACACTTGTATTATTAAT [CACACA_site1841]”, the “gcPBM binding intensity (ln)” value stood at 6.59.

Consider “AAGGATACGCAAAAATGTACAAAATGCTTATAAATA [XGTACX_site984]”, for which the “gcPBM binding intensity (ln)” value came to 6.31.

With “GGAGCTATCTCCTGCACACACAATTTTTTTTTTTTT [CACACA_site2240]”, the “gcPBM binding intensity (ln)” value was 7.52.

Regarding “ATGCATAAATTTTGAAGTACAAAAAAAAAAAATAAA [XGTACX_site7282]”, the “gcPBM binding intensity (ln)” value came out at 6.45.

On to “AAATGAGAAGAAATACGTACATATAATAAAATAATT [XGTACX_site4439]”, for which the “gcPBM binding intensity (ln)” value stood at 6.64.

Turning to “ATACATATATAAATACGTACATATATAATTATATAT [XGTACX_site8178]”, the “gcPBM binding intensity (ln)” value was found to be 6.71.

For the sequence “TTATATATCTATAATACACACATAATAATATATTTA [CACACA_site7423]”, the “gcPBM binding intensity (ln)” value worked out at 6.55.

Consider “GCTACGTAAAAAATATGTACATATGAAATATTTTGC [XGTACX_site5111]”, for which the “gcPBM binding intensity (ln)” value was determined as 6.5.

With “TCTGTAAAGTAATGGACACACAATATATCCATTTAT [CACACA_site1536]”, the “gcPBM binding intensity (ln)” value was 6.31.

Regarding “TTTCATTGGTTTATAAAATTATGAGATCTTAAAGAC [CACACA_negctrl_site1484]”, the “gcPBM binding intensity (ln)” value worked out at 6.39.

Turning to “ATATATATATATATATGTACATATATTTATATTTAT [XGTACX_site6179]”, the “gcPBM binding intensity (ln)” value turned out to be 9.37.

“GAATAATATGGACATACACACATATACATACAGATA [CACACA_site5200]”: the “gcPBM binding intensity (ln)” value turned out to be 6.63.

In the case of “AAATAAAAAAAATTTGCACACCTTCAAAGTAATATA [CACACA_site1583]”, the “gcPBM binding intensity (ln)” value amounted to 10.2.

With “CATACAGTATTATACTGTACCCATACAAAAAAATAT [XGTACX_site6130]”, the “gcPBM binding intensity (ln)” value came to 6.85.

In the case of “CTTATTTAAGAGTATGAACACACATCATACACATAT [CACACA_site9205]”, the “gcPBM binding intensity (ln)” value was found to be 6.57.

In the case of “TTTTTAATATTCTATGCATGCATCGCATATTTGGTT [TGCATGCA_site1004]”, the “gcPBM binding intensity (ln)” value turned out to be 6.55.

For “TTAACATTATATGAAGGTACAGAAAAAAAAAAATTA [XGTACX_site8530]”, the “gcPBM binding intensity (ln)” value was 6.16.

As to “CATGTAATATTAAACACACACTCATATAACTCAATA [CACACA_site4212]”, the “gcPBM binding intensity (ln)” value was found to be 6.34.

Regarding “CACATATACTTCTGTGCACACGAATATTTTTCTTCT [CACACA_site1408]”, the “gcPBM binding intensity (ln)” value amounted to 11.2.

Regarding “AAAATATAATATAATGCACACATAAACAAAAAAAAA [CACACA_site8161]”, the “gcPBM binding intensity (ln)” value turned out to be 10.1.
